Our source for the T/C values is PubChem BioAssay AID272 (DTP/NCI, 2004).

The test system of the experiment is Lewis lung carcinoma i.m., BDF1 mice, T/C %. Description: NCI In Vivo Anticancer Drug Screen. Data for tumor model Lewis Lung Carcinoma (intramuscular) in B6D2F1 (BDF1) mice. The protocol:
The antitumor activity of compounds was measured in mice bearing transplantable tumors. Survival or tumor size were measured and the results are expressed as the measurement made in the treated group (T) divided by the measurement made in the vehicle treated control group (C). The tumor model used in this assay is Lewis Lung Carcinoma (intramuscular) in B6D2F1 (BDF1) mice

Records with an inconclusive call do not appear. The source holds more than one record for some entries. The list is limited to them. An entry can have further records. Values given together differ for a reason that is not stated; they may come from other doses, times, organisms or constructs than stated.

On to `CCc1nc(N)nc(N)c1-c1ccc(Cl)cc1`, for which the T/C runs as follows: (endpoint: mean tumor weight, dose: 4.0 mg/kg/injection, schedule: Q06HX008 (ip), vehicle: Klucel (hydroxypropylcellulose) (HPC), higher = larger tumour) 52 % of control and 80 % of control; (endpoint: mean tumor weight, dose: 16.0 mg/kg/injection, schedule: Q08DX002 (ip), vehicle: Klucel (hydroxypropylcellulose) (HPC), higher = larger tumour) 55 % of control and 100 % of control; (endpoint: mean tumor weight, dose: 32.0 mg/kg/injection, schedule: Q01DX009 (ip), vehicle: Klucel (hydroxypropylcellulose) (HPC), higher = larger tumour) 66 % of control and 98 % of control.

`Clc1ncnc2nc[nH]c12`: where the note is “endpoint: median survival time, dose: 12.5 mg/kg/injection, schedule: Q01DX011 (ip), vehicle: other, higher = longer survival”, the T/C was 94 % of control and 151 % of control.

As to `OC(CBr)C(O)C(O)C(O)CBr` (stereo unspecified), for the setting “endpoint: median survival time, dose: 100.0 mg/kg/injection, schedule: Q01DX011 (ip), vehicle: Klucel (hydroxypropylcellulose) (HPC), higher = longer survival”, the T/C is 109 % of control and 161 % of control.

Regarding `Cc1c(N)nc([C@H](CC(N)=O)NC[C@H](N)C(N)=O)nc1C(=O)N[C@H](C(=O)N[C@H](C)[C@@H](O)[C@H](C)C(=O)N[C@H](C(=O)NCCc1nc(-c2nc(C(=O)NCCC[S+](C)C)cs2)cs1)[C@@H](C)O)C(OC1OC(CO)C(O)C(O)C1OC1OC(CO)C(O)C(OC(N)=O)C1O)c1cnc[nH]1` (stereo partly specified), the T/C is 40 % of control and 80 % of control (endpoint: mean tumor weight (est.), dose: 1.8 mg/kg/injection, schedule: Q01DX009 (ip), vehicle: saline, higher = larger tumour); 35 % of control and 82 % of control (endpoint: mean tumor weight (est.), dose: 3.0 mg/kg/injection, schedule: Q01DX009 (ip), vehicle: saline, higher = larger tumour); 19 % of control, 31 % of control, 58 % of control (endpoint: mean tumor weight (est.), dose: 5.0 mg/kg/injection, schedule: Q01DX009 (ip), vehicle: saline, higher = larger tumour).

Regarding `O=NN(CCCl)C(=O)NCCCl`, the T/C by setting is: (endpoint: median survival time, dose: 14.0 mg/kg/injection, schedule: Q## X002 (ip), vehicle: saline, higher = longer survival) 104 % of control and 192 % of control; (endpoint: median survival time, dose: 23.0 mg/kg/injection, schedule: Q## X002 (ip), vehicle: saline, higher = longer survival) 118 % of control and 181 % of control.

Regarding `O=C1N[C@@H]([C@H]2CC[C@H](Cl)CN2)C(=O)N[C@H]1[C@H]1CC[C@H](Cl)CN1`, the T/C (endpoint: median survival time, dose: 2.0 mg/kg/injection, schedule: Q01DX011 (ip), vehicle: saline, higher = longer survival) is 120 % of control and 157 % of control.
